# Over roughly 81,000 sequences, “one-hybrid fitness for binding NBS DNA” has its median near -0.1; the highest 2% begin near 0.36. The list shows a part of the results.
# B1: Caulobacter ParB omega fusion; a variant is named by its letters at X, in order, B8GW30 (parent)
# chain: MESVVVGEPGMSEGRRGLGRGLSALLGEVDAAPAQAPGEQLGGSREAPIEILQRNPDQPRRTFREEDLEDLSNSIREKGVLQPILVRPSPDTAGEYQIVAGERAWRAAQRAGLKTVPIMVRELDDLAVLEIGIIENVQRADLNVLEEALSYKVLMEKFERTQENIAQTIGKSXSHVANXMRLLXLPDEVQSYLVSGELTAXHARAIAAAADPVALAKQIIEGGLSVRETEALARKAPNLSAGKSKGGRPPRVKDTDTQALESDLSSVLGLDVSIDHRGSTGTLTITYATLEQLDDLCNRLTRGI
# Variants of: B1
# Assay: one-hybrid fitness for binding NBS DNA (the Noc-binding site; scaled: cognate 1, non-cognate 0); higher = stronger binding
# Conditions: with NBS DNA site
# Method in brief: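 Values were rescaled so that cognate is 1 and non-cognate is 0. Each is a fitness, the log change in a variant's read ratio to wild type from Illumina reads of plasmids before and after selection, with three replicate libraries pooled and variants under 10 reads dropped. Selection of the Caulobacter ParB libraries, four specificity codons randomised, used E. coli USO with a HIS3 reporter, site 19 bp from the promoter, on M9-minus-histidine with 0.1 mM IPTG and 5 mM 3-AT for 48 hours at 37°C.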
row,Variant,one-hybrid fitness for binding NBS DNA
1,GLQN,≤ 0.2
2,QDNE,≤ 0.2
3,ARYS,≤ 0.2
4,GGHP,≤ 0.2
5,AKDA,≤ 0.2
6,MLCC,≤ 0.2
7,SSVI,≤ 0.2
8,TSGA,≤ 0.2
9,RLIY,≤ 0.2
10,TRGL,≤ 0.2
11,KSID,≤ 0.2
12,HPLV,≤ 0.2
13,LIIM,≤ 0.2
14,MVVG,≤ 0.2
15,TGHA,≤ 0.2
16,GHER,≤ 0.2
17,QYAT,0.427
18,RIAM,≤ 0.2
19,EDRT,≤ 0.2
20,QFDS,≤ 0.2
21,GHAS,≤ 0.2
22,VSTI,≤ 0.2
23,HAGL,≤ 0.2
24,ATAR,≤ 0.2
25,TRHQ,≤ 0.2
26,KNHK,≤ 0.2

row,Variant,one-hybrid fitness for binding NBS DNA
1,TMPG,≤ 0.2
2,SHNC,≤ 0.2
3,SMRH,≤ 0.2
4,QFQT,0.243
5,PFMR,≤ 0.2
6,YIES,≤ 0.2
7,VIHT,≤ 0.2
8,QAGT,0.37
9,DKDR,≤ 0.2
10,ERVL,≤ 0.2
11,QRQA,0.611
12,NGGS,≤ 0.2
13,TTQT,≤ 0.2
14,TRRR,0.682
15,TEYG,≤ 0.2
16,VCGS,≤ 0.2
17,NSHM,≤ 0.2
18,PLFC,≤ 0.2
19,QETR,≤ 0.2
20,MTYG,≤ 0.2
21,DHVS,≤ 0.2
22,ADIK,≤ 0.2
23,VTWV,≤ 0.2
24,PCAS,≤ 0.2
25,GNTG,≤ 0.2
26,RQMS,0.297

row,Variant,one-hybrid fitness for binding NBS DNA
1,RQVN,≤ 0.2
2,YEHN,≤ 0.2
3,SQYR,≤ 0.2
4,GPMS,≤ 0.2
5,VQCT,≤ 0.2
6,CIKW,≤ 0.2
7,EKCM,≤ 0.2
8,DRRN,≤ 0.2
9,QITS,0.283
10,RLRE,≤ 0.2
11,PLPR,≤ 0.2
12,DHVG,≤ 0.2
13,PHVL,≤ 0.2
14,FLWS,≤ 0.2
15,SMRK,≤ 0.2
16,RHKV,0.203
17,NNES,≤ 0.2
18,SNTC,≤ 0.2
19,YSRF,≤ 0.2
20,TYHP,≤ 0.2
21,PIEP,≤ 0.2
22,QTAI,≤ 0.2
23,SQLV,≤ 0.2
24,RVPW,≤ 0.2
25,RVFL,≤ 0.2
26,GLIC,≤ 0.2

row,Variant,one-hybrid fitness for binding NBS DNA
1,ATKR,0.286
2,HRNL,≤ 0.2
3,RWEC,≤ 0.2
4,YHPP,≤ 0.2
5,RTIL,≤ 0.2
6,VDKR,≤ 0.2
7,GATA,≤ 0.2
8,RCVY,≤ 0.2
9,VRHH,≤ 0.2
10,LIGM,≤ 0.2
11,TRML,≤ 0.2
12,CHTC,≤ 0.2
13,SQDR,≤ 0.2
14,FTEY,≤ 0.2
15,MGKN,≤ 0.2
16,LSIA,≤ 0.2
17,ANTT,≤ 0.2
18,NKYH,≤ 0.2
19,EVNS,≤ 0.2
20,CSKS,≤ 0.2
21,AIPD,≤ 0.2
22,VNEA,≤ 0.2
23,RMGN,≤ 0.2
24,CRCG,≤ 0.2
25,MVQL,≤ 0.2
26,DTNK,≤ 0.2

row,Variant,one-hybrid fitness for binding NBS DNA
1,TKIS,≤ 0.2
2,NNTS,≤ 0.2
3,YNPS,≤ 0.2
4,AIRG,≤ 0.2
5,YLGV,≤ 0.2
6,NHTW,≤ 0.2
7,IATQ,≤ 0.2
8,GAWR,≤ 0.2
9,IHVA,≤ 0.2
10,RGND,≤ 0.2
11,MTSI,≤ 0.2
12,MWNR,≤ 0.2
13,QHHR,0.571
14,VQKT,≤ 0.2
15,LCPC,≤ 0.2
16,GKYR,≤ 0.2
17,QKAA,0.319
18,HICM,≤ 0.2
19,HTKC,≤ 0.2
20,CRQG,≤ 0.2
21,ITNW,≤ 0.2
22,TYTG,≤ 0.2
23,NERW,≤ 0.2
24,LFLL,≤ 0.2
25,GVVT,≤ 0.2
26,SEKT,≤ 0.2

row,Variant,one-hybrid fitness for binding NBS DNA
1,VHKY,≤ 0.2
2,VYSL,≤ 0.2
3,DSIE,≤ 0.2
4,VNPM,≤ 0.2
5,DWFR,≤ 0.2
6,CTKA,≤ 0.2
7,VGFF,≤ 0.2
8,PTQC,≤ 0.2
9,CSSD,≤ 0.2
10,VRNA,≤ 0.2
11,ATHF,≤ 0.2
12,LRGY,≤ 0.2
13,TNLI,≤ 0.2
14,QFCY,≤ 0.2
15,MADN,≤ 0.2
16,YVHC,≤ 0.2
17,LPES,≤ 0.2
18,YTLF,≤ 0.2
19,SGLW,≤ 0.2
20,AATK,≤ 0.2
21,CWAL,≤ 0.2
22,DTMR,≤ 0.2
23,SCMF,≤ 0.2
